# The campaign covered roughly 350,000 compounds. About 31,000 (8.9%) were called active. Inconclusive means that the source gave no clear call. Such entries were picked first, then a sample of the others. Calls follow the shape of the dose curve; as a rule, active = well fitted inhibition curve with a large enough effect; inconclusive = small, poorly fitted or top-dose-only effect; inactive = no such curve, though single readings can be large or run the other way. Potencies of inconclusive entries are doubtful fits and often do not repeat.
# Molecular target: Histone-lysine N-methyltransferase EHMT2 (Homo sapiens) (UniProt Q96KQ7)
# Assay: qHTS Assay for Inhibitors of Histone Lysine Methyltransferase G9a; also: nearly all actives have a fitted effect of over 75% in size
# Conditions: G9a H3K9 monomethylation, AlphaScreen, 2 h; activity, negative = inhibition: at 59 µM (top of the series) unless noted
# Summary of the method: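 Chemiluminescent proximity detection of H3K9 monomethylation, read after 10 min bead incubation in the dark. Reaction: 20 nM G9a, 500 nM biotin-H3K9 peptide, 20 uM SAM cofactor, 2 h, room temperature, following 15 min enzyme-compound preincubation.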
# % is scaled to controls: 0 for no effect and ±100 for the full control effect; potency is read from the fitted curve at half-maximal effect; tags tell the direction and shape of the fitted curve.
# Sequence of UniProt Q96KQ7 (Q96KQ7 whole entry, looked up): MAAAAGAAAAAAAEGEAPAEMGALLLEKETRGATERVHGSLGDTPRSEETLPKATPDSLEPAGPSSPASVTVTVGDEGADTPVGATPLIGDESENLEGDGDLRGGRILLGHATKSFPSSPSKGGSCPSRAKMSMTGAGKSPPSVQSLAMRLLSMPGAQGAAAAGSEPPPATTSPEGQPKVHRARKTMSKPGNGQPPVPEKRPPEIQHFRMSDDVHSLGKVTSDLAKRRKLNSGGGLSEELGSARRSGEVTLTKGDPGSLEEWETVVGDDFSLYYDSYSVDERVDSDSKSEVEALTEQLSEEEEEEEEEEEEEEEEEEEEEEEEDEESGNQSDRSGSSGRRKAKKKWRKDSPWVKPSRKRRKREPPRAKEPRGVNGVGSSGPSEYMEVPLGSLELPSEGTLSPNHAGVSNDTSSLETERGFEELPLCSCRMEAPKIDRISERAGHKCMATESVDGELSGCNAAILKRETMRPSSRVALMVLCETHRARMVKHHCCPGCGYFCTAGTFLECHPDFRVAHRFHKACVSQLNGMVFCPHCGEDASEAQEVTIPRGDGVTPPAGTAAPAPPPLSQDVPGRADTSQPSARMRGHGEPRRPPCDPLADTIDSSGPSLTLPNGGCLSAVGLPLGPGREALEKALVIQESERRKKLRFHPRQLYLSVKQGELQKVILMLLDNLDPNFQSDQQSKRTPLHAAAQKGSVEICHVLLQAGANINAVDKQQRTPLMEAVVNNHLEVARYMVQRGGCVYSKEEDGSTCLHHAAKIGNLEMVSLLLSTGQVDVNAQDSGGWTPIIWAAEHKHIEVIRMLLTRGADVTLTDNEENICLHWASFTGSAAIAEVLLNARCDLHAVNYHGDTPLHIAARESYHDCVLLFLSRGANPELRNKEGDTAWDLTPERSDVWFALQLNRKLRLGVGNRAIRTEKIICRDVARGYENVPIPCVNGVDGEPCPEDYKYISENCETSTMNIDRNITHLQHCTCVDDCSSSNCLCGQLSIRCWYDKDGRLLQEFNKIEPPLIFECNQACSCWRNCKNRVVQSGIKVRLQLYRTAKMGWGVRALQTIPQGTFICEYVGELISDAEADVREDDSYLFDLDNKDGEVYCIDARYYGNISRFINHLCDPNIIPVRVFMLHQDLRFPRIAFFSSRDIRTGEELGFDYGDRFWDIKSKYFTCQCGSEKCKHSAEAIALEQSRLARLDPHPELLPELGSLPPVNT
SMILES,Potency,"activity, negative = inhibition"
COc1cc(OC)cc(C(=O)Nc2nnc3n2CCS3)c1,"inconclusive: 0.794 µM [inhibitor, partial curve, poor fit]",–
Cc1cc(C(=O)COC(=O)c2n[nH]c3ccccc23)c(C)n1C,"inconclusive: 25.1 µM [inhibitor, single point]",–
Cc1cc(-c2n[nH]c(=S)n2-c2ccc(F)cc2)nn1C,"inconclusive: 28.2 µM [inhibitor, partial curve, poor fit]",–
COC(=O)c1ccc(CC(=O)c2ccc(O)cc2O)o1,active: 22.4 µM,–
O=c1[nH]c(CN2CCc3ccccc32)nc2scc(-c3cccs3)c12,active: 17.8 µM,–
C=C(C)CSc1nnc(CCNC(=O)OC(C)(C)C)o1,inactive,–
COc1ccccc1-c1nnc(SCC(=O)Nc2oc(C)c3c(C)n[nH]c(=O)c23)n1C,active: 5.01 µM,–
CCN(CC)S(=O)(=O)c1ccc2[nH]cc(C(=O)NCCc3ccccc3)c(=O)c2c1,"inconclusive: 11.2 µM [inhibitor, partial curve, poor fit]",inconclusive: -58% [inhibitor]
O=c1c(S(=O)(=O)c2cccc(Cl)c2)cn(Cc2ccccc2)c2cc(N3CCCCC3)c(F)cc12,inactive,–
CCN(Cc1ccccc1)C(=O)c1ccc2c(=O)n3c(nc2c1)CCC3,inactive,–
Cc1ccc(C(=O)NC2CCCC(C)C2C)cc1S(=O)(=O)N1CCCCC1 (centres undefined),"inconclusive: 89.1 µM [inhibitor, partial curve, poor fit]",–
Cc1cc2cccc(C)c2nc1SCC(=O)NC1CCCCC1,inactive,–
COc1ccc(N2CCN(C(c3cccs3)c3nnnn3C3CCCC3)CC2)cc1 (centres undefined),"inconclusive: 5.62 µM [inhibitor, single point]",–
Cc1ccc(NC(=O)CCc2ccc(C)o2)c(Br)c1,"inconclusive: 0.562 µM [inhibitor, partial curve, poor fit]",–
C/C(=N\NC(=O)c1cccc(S(=O)(=O)N2CCOCC2)c1)c1ccc(C#N)cc1,active: 39.8 µM,–
C/C(=N\NS(=O)(=O)c1ccc(C)c([N+](=O)[O-])c1)c1cc2ccccc2o1,"inconclusive: 35.5 µM [inhibitor, single point]",–
Cc1noc(C)c1CSc1ccccc1C(=O)N1CCN(c2ccccc2)CC1,"inconclusive: 39.8 µM [inhibitor, single point]",–
Cc1ccsc1CNCc1cc(Cl)ccc1O,–,inactive: -14.7% [at 2.33 µM]
CC1(C)OC(=O)N(c2ccccc2)C12C=Cc1cc(Br)ccc1O2 (centres undefined),–,inactive: -5.69% [at 12.7 µM]
Cc1ccc(S(=O)(=O)N(C)C)cc1NC(=O)C1CCCC1,"inconclusive: 1.58 µM [inhibitor, full curve, poor fit]",–
CN(C)c1ccc(NC(=O)C(=O)NCCOc2ccccc2)cc1,"inconclusive: 100 µM [inhibitor, single point]",–
Cc1ccc2c(c1)S/C(=C\c1cccc[n+]1C)N2CCO,"inconclusive: 39.8 µM [inhibitor, partial curve, poor fit]",–
N=c1c(S(=O)(=O)c2ccc(Cl)cc2)cc2c(=O)n3ccccc3nc2n1CCN1CCOCC1,inactive,–
Cc1ccc(C)c(S(=O)(=O)Nc2ccccc2C(=O)Nc2ccc(S(=O)(=O)Nc3ncccn3)cc2)c1,"inconclusive: 31.6 µM [inhibitor, single point]",–
COc1cc(OC)c(NC(=O)c2c(C)oc3nc(C)nc(N4CCOCC4)c23)cc1Cl,inactive,–

SMILES,Potency,"activity, negative = inhibition"
CC1CCCC(NC(=O)c2cc(S(=O)(=O)N3CCCCC3)ccc2Cl)C1C (centres undefined),–,inactive: 12.6% [at 12.7 µM]
CCn1ccc2cc(S(=O)(=O)N3CCC(C(=O)NCCc4ccccc4)CC3)ccc21,inactive,–
CCOc1ccc(NC(=S)N(CCN2CCOCC2)Cc2cc3cc4c(cc3[nH]c2=O)OCCO4)cc1,"inconclusive: 35.5 µM [inhibitor, partial curve, poor fit]",–
Cc1cc(C)cc(C(=O)n2cnnc2N)c1,–,inconclusive: -86% [inhibitor]
N[C@@H](Cc1ccc(O)cc1)C(=O)Nc1ccc2ccccc2c1,–,inactive: 8.19% [at 12.7 µM]
CCOC(=O)c1cc(-c2ccccc2)n(CCC(=O)Nc2cc(C)cc(C)c2)c1C,"inconclusive: 5.01 µM [inhibitor, partial curve, poor fit]",–
Cc1ccc2scc(N3CCCCC3)c(=O)c2c1,inactive,–
COc1cc(NC(=O)c2cc(Cl)ccc2Cl)ccc1-c1cc2ccccc2oc1=O,–,inactive: 1.46% [at 12.7 µM]
O=C(NCc1ccco1)/C(=C\c1ccco1)NC(=O)c1ccco1,active: 44.7 µM,–
Nn1c(SCC(=O)NCCC2=CCCCC2)nnc1-c1cccnc1,active: 44.7 µM,–
Clc1ccc(Cl)c(OCCCCN2CCCCC2)c1,active: 8.91 µM,–
COC(=O)c1c(NC(=O)COc2ccc(Cl)cc2Cl)sc2c1CC(C)(C)NC2(C)C,active: 31.6 µM,–
CCOCc1nnc(NC(=O)C2CCN(C(=O)C3CC(=O)N(c4ccc(C)cc4)C3)CC2)s1 (centres undefined),"inconclusive: 79.4 µM [inhibitor, single point]",–
COc1ccccc1OCCN(C#N)c1nc(N(C)C)nc(N(C)C)n1,inactive,–
COc1c(Cl)cc(Cl)cc1CNCCNCC(C)O (centres undefined),active: 35.5 µM,–
O=C(CCCN1C(=O)/C(=C\c2cccs2)SC1=S)Nc1ccc(O)cc1C(=O)O,"inconclusive: 44.7 µM [inhibitor, partial curve, poor fit]",–
CS(=O)(=O)c1ccc2nc(NC(=O)c3ccccc3Br)sc2c1,active: 50.1 µM,–
CC(=O)c1cccc(N2C(=O)C3C(C(=O)Nc4cc(C)on4)C4(C)C=CC3(O4)C2C(=O)NC(C)(C)C)c1 (centres undefined),"inconclusive: 89.1 µM [inhibitor, partial curve, poor fit]",–
Cc1occc(=O)c1OCc1ccccc1,inactive,–
Cc1nnc(N(Cc2ccco2)C(=O)c2ccc(C#N)cc2)s1,inactive,–
CCOCCCn1c(SC(C(=O)Nc2cc(C)ccc2C)c2ccccc2)nnc1-c1ccc(Cl)cc1 (centres undefined),inactive,–
COc1ccc(S(=O)(=O)NCC2CCCN(C(=O)c3occc3C)C2)cc1 (centres undefined),"inconclusive: 70.8 µM [inhibitor, partial curve, poor fit]",–
Cc1ccc2nc(NC(=O)c3nc(SCc4ccccc4C)ncc3Cl)sc2c1,inactive,–
COc1ccc(-c2nnsc2N2C(=O)c3ccccc3C2=O)cc1,"inconclusive: 79.4 µM [inhibitor, single point]",–
Cc1nc(Sc2ccc(Br)cc2)c(C#N)c(C)c1[N+](=O)[O-],"inconclusive: 12.6 µM [inhibitor, full curve]",–

SMILES,Potency,"activity, negative = inhibition"
Cc1cc(C(=O)N/N=C2\CCCC(=O)C2)c2ccccc2n1,inactive,–
O=C(Nc1ccc(F)cc1)c1ccc(S(=O)(=O)N2CCCC2)cc1,"inconclusive: 10 µM [inhibitor, partial curve, poor fit]",–
COC(=O)c1ccc(NC(=O)CSc2nncn2-c2cccnc2)cc1,"inconclusive: 89.1 µM [inhibitor, single point]",–
Cc1ccc(CNC(=O)c2cnc3c(-c4ccccc4)c(C)nn3c2C)o1,inactive,–
CCC1CCCCN1Cc1nc2c(c(=O)n(C)c(=O)n2C)n1CC(C)C (centres undefined),"inconclusive: 79.4 µM [inhibitor, partial curve, poor fit]",–
O=C(CNCc1cccs1)NC12CC3CC(CC(C3)C1)C2,active: 12.6 µM,–
Cc1cc(OCC(=O)N2CCN(c3cccc(Cl)c3)CC2)c2c(C)c(C)c(=O)oc2c1,inactive,–
COc1ccccc1N1CCN(CC(=O)NCC2CCCO2)CC1 (centres undefined),active: 7.08 µM,–
O=C(O)c1[nH]c2ccccc2c1C(c1cccc(O)c1)c1c(C(=O)O)[nH]c2ccccc12,"inconclusive: 79.4 µM [inhibitor, single point]",–
Cc1ccc(N2C(=O)CS(=O)(=O)C23C(=O)N(C)c2ccccc23)cc1F (centres undefined),active: 12.6 µM,–
CC(C)=CC(=O)OCc1csc(CC(=O)Nc2ccccc2C)n1,inactive,–
Cc1cc(=O)[nH]c(N/N=C/c2ccc(N(C)C)cc2)n1,inactive,–
CN1C(=O)/C(=C2\SC(=S)N(CC3CCCO3)C2=O)c2ccccc21 (centres undefined),"inconclusive: 50.1 µM [inhibitor, partial curve, poor fit]",–
Nc1nonc1-c1nc2ccccc2n1CC(=O)Nc1ccccc1,–,inactive: 6.24% [at 12.7 µM]
CCN(CC)S(=O)(=O)c1ccc(C)c(NC(=S)Nc2cccc(S(=O)(=O)N3CCCCCC3)c2)c1,"inconclusive: 31.6 µM [inhibitor, single point]",–
CC1=CC(C)(C)NC(=S)N1c1cccc(C)c1,–,inactive: 27.8% [at 12.7 µM]
NC1=C(O)C(=O)C(c2ccccc2)O1 (centres undefined),"inconclusive: 79.4 µM [inhibitor, partial curve, poor fit]",–
O=C(CNC(=O)c1ccc(Cl)cc1Cl)OCCOc1ccccc1,–,inactive: 6.19% [at 0.501 µM]
CC(C)CCN(CC(=O)NCc1ccc(F)cc1)S(=O)(=O)c1ccccc1F,inactive,–
COc1ccc(CNC(=O)c2ccc(CSc3nc4ccncc4n3Cc3ccccc3F)cc2)cc1,inactive,–
CCOC(=O)c1oc2cc(O)ccc2c(=O)c1-c1csc(C)n1,"inconclusive: 79.4 µM [inhibitor, partial curve, poor fit]",–
COc1cc(C2C(C#N)=C(N)OC3=C2C(=O)CC(C)(C)C3)c([N+](=O)[O-])cc1OC (centres undefined),"inconclusive: 31.6 µM [inhibitor, single point]",–
O=C(Nc1nc(-c2cccs2)c(C(=O)C(F)(F)F)s1)c1ccco1,"inconclusive: 50.1 µM [inhibitor, partial curve]",–
